Assay results from PubChem BioAssay (NCI).
Values joined by “and” are separate entries in the source; they are usually repeats but may differ in a detail not shown here. Equal values may be shown once.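 How tested: cells in 96-well plates exposed to compound for 48 hours at five concentrations. GI50 marks 50% less growth. TGI marks complete inhibition of growth.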 Active and inactive are the calls of the source. Cut-off read from the data, not from the text of the source: active = GI50 below about 0.43 µM; inactive = the rest.

Tested on: NCI-H322M lung
Experiment: inhibition of tumour cell growth, NCI panel, 48 h

Structure (SMILES)	GI50	TGI	outcome
C=C(C)C(=O)Oc1ccc(N=Nc2ccc(C)cc2)ccc1=O	2.4 µM	9.56 µM	–
COCN1C(=O)C2CC(/C=C/C(N)=O)=CN2C(=O)c2ccccc21 (stereo not given)	–	> 100 µM	–
FC(F)(F)c1ccc(-c2cnc(Cl)nc2NC2CCCCCC2)cc1	> 100 µM	> 100 µM	–
CC(=O)C(C)CCOC1(C)OCCC1C (stereo not given)	–	> 100 µM	–
Cn1c(=O)c2nc3c4ccccc4c(=O)n(C)c3nc2n(C)c1=O	–	> 100 µM	–
O=C(Nc1ccccc1-c1nn(CO)c(=S)n(CO)c1=O)C(F)(F)F	–	> 100 µM	–
COc1ccc(OC)c(NC(=O)C2=C(C)NC(C)=C(C(=O)Nc3cc(OC)ccc3OC)C2c2ccco2)c1	–	> 100 µM	–
CCOC(=O)NC(Nc1ncn(C(NC(=O)OCC)(C(F)(F)F)C(F)(F)F)n1)(C(F)(F)F)C(F)(F)F	–	> 100 µM	–
COC(OC)(c1ccccc1)C(Br)Br	–	> 100 µM	–
CCC(Cc1cnc2nc(N)nc(N)c2n1)c1ccc(C(=O)NC(CCC(=O)O)C(=O)O)cc1 (stereo not given)	–	> 100 µM	–
COc1cc2oc3c(c(=O)c2c(O)c1/C=C/C(C)C)CCC(C)(C)Oc1cc(O)ccc1-3	–	63.3 µM	–
Cn1cc(-c2nc3c(F)cc4[nH]ncc4c3c3c2CCCC3)c(C(F)(F)F)n1	17.9 µM	87.8 µM	–
COc1ccc(N2C(=O)C3CC(c4ccc(C)cc4)c4c([nH]c5ccccc45)C3C2=O)cc1 (stereo not given)	–	> 82.6 µM	–
COC(=O)C(CC(=O)c1ccccc1)c1ccccc1NC(C)=O (stereo not given)	–	> 100 µM	–
Cc1ccc(/C=N/Nc2ccccn2)s1	–	> 100 µM	–
C=C1CC(Cn2ccc(=O)[nH]c2=O)(c2ccc(OC)cc2)OC1=O (stereo not given)	–	> 100 µM	–
OC1CCN(c2c3ccccc3nc3ccccc23)CC1	–	66.4 µM	–
CCOc1nc(OCC)nc(-c2cccn2-c2ccccc2)n1	–	> 100 µM	–
C[C@H]1COC(c2ccccn2)=N1	–	> 100 µM	–
Cn1ncc2c(Sc3ccc(Cl)cc3)ncnc21	16.1 µM	> 100 µM	–
O=C(NNC(=O)c1ccccc1O)c1ccccc1O	–	> 100 µM	–
O=C(N=Nc1c(O)[nH]c2c(Cl)cc(Cl)cc12)c1ccccc1O	–	32.4 µM	–
COc1cc(-c2n[nH]nc2-c2ccc3c(c2)OCCO3)cc(OC)c1OC	0.0673 µM	> 100 µM	–
O=C1NC(N/N=C/c2c[nH]c3ccccc23)=N/C1=C\c1cccs1	–	> 100 µM	–

Structure (SMILES)	GI50	TGI	outcome
N#CCCN(CCC#N)CCN(CCN(CCC#N)CCC#N)CCN(CCC#N)CCC#N	–	> 100 µM	–
COc1cc(-c2nc3ccccc3s2)ccc1OCCCCCOc1cc2c(cc1OC)C(=O)N1CCC[C@H]1C=N2	0.923 µM	13.2 µM	–
O=P(O)(O)C(NCC(O)CN1CCOCC1)P(=O)(O)O (stereo not given)	–	> 100 µM	–
O=C1/C(=C/c2ccccc2)CN(C(=O)C(F)(F)F)C/C1=C\c1ccccc1	–	18.6 µM	–
COc1ccc2c(c1)C(=O)c1c-2n(CCCCl)c(=O)c2cc(OC)c(OC)cc12	48.4 µM	> 100 µM	–
COc1cccc(C2c3cc4c(cc3OC(NNc3ccccc3)C2C)OCO4)c1O (stereo not given)	–	24.4 µM	–
Cc1c2ccccc2cc2nc3ccccc3n12	–	> 10 µM	–
C/C(CCn1[nH]c(=O)ccc1=O)=N\N=C(N)N	–	> 100 µM	–
CNc1ccc(C(=O)CC(O)CCC(C)C2OC(=O)CC(O)CC(=O)CC(O)CC(O)CC(O)CC(O)CC3(O)CC(O)C(C(=O)NCCN(C)C)C(CC(OC4OC(C)C(O)C(NC(=O)CN5CCN(CCO)CC5)C4O)/C=C/C=C/C=C/C=C\C=C/C=C/C=C/C2C)O3)cc1 (stereo not given)	0.183 µM	0.778 µM	–
C/C(=N\NC(=O)Nc1ccccc1Cl)c1ccc(O)cc1	–	> 100 µM	–
CS(=O)(=O)N1CC(CI)c2ccc(O)cc21 (stereo not given)	–	18.8 µM	–
C/C(=N\O)c1ccc2cc(Br)c3ccccc3c2c1	–	75.3 µM	–
CCC/C=C/C=C/C(=O)OC1C(C)C2(O)C3C=C(C)C(=O)C3CC(COC(C)=O)=CC2C2C(C)(C)C12OC(=O)C(C)C (stereo not given)	–	> 100 µM	–
CCN(Cc1ccncc1)c1ccc(CO)c(Cl)c1	58.9 µM	> 100 µM	–
Cc1c(C(=O)OCc2ccccc2)[n+](=O)c2ccccc2n1[O-]	–	> 100 µM	–
COc1ccc(/C=C(\C#N)c2nc3ccccc3c(=O)[nH]2)cc1	–	> 100 µM	–
COc1cc2cc3c4c(cc(OC)c(OC)c4c2cc1OC)CCN3	–	> 100 µM	–
Cc1cc(NN)nc2n[nH]c(N)c12	–	> 100 µM	–
CC(C)C1CNC2N1C(=O)C2(C)OCc1ccccc1 (stereo not given)	–	> 100 µM	–
Oc1ccc(-c2nn3c(CCCCCCCCc4nnc5sc(-c6ccc(O)cc6)nn45)nnc3s2)cc1	–	> 100 µM	–
CC(C)C(=O)OCC1CCCN2CCCCC12 (stereo not given)	–	> 100 µM	–
CN(C)CCNC(=O)c1ccc(Cl)c2ccc(-c3ccccc3)nc12	–	14.8 µM	–
CCCCCCCCc1ccc(OCCOCC[N+](C)(C)CC)cc1 (tested in a mixture with another compound)	13.5 µM	27.1 µM	–
CC(=O)N1CCc2[nH]c3ccccc3c2CC1	–	> 100 µM	–

Structure (SMILES)	GI50	TGI	outcome
CCOC(=O)NC1C2CC(=O)C(O2)C1OCc1ccccc1 (stereo not given)	–	> 100 µM	–
COc1ccc(/C=C/c2nnc(/C=C/c3ccc(OC)c(OC)c3)o2)cc1OC	14.4 µM	> 100 µM	–
N#C/C(=C\c1cc(F)cc(F)c1)c1ccccn1	–	> 100 µM	–
CCN1CCC(Oc2c(C#N)ncc3[nH]c4ncccc4c23)CC1	6.58 µM	> 50 µM	–
COP(C)(=O)C1=CCN(C(=O)OCC[Si](C)(C)C)CC1 (stereo not given)	–	> 100 µM	–
O=C(O)CNC(=O)C(CSC(=O)OCC1c2ccccc2-c2ccccc21)NC(=O)CCC(NC(=O)OCC1c2ccccc2-c2ccccc21)C(=O)O (stereo not given)	–	> 100 µM	–
S=C(/C=C1\SC(=Nc2ccccc2)C(=Nc2ccccc2)N1c1ccccc1)Nc1ccccc1	–	> 100 µM	–
CC[C@@]1(O)C[C@H](OC2CC(N(C)C)C(OC3CC(O)C(OC4CC(O)C(O)C(C)O4)C(C)O3)C(C)O2)c2c(cc3c(c2O)C(=O)c2c(O)ccc(O)c2C3=O)[C@H]1C(=O)OC (stereo not given in full)	–	0.423 µM	–
O=S1CCN(Cc2ccc(-c3ccc4ncnc(Nc5ccc(OCc6ccccc6)c(Cl)c5)c4c3)o2)CC1	0.708 µM	> 25 µM	–
O=C(O)C1[C@@H](C(=O)O)C1(Br)CBr (stereo not given in full)	–	> 100 µM	–
COC(=O)C(C(=O)C(=O)Nc1nc2ccc([N+](=O)[O-])cc2s1)c1nc2ccc(Cl)cc2[nH]c1=O (stereo not given)	–	> 100 µM	–
Nc1ncnc2c1ncn2C1OC(CSCc2ccc(Cl)cc2)C(O)C1O (stereo not given)	–	> 100 µM	–
COC(=O)c1nc2c(C)c(O)c(Oc3c(C)c(O)c(O)c([C@H](C)CCC=C(C)C)c3O)c([C@H](C)CCC=C(C)C)c2o1	–	–	inactive
CCN(CC)CCC(=O)NC1c2ccccc2Oc2c(C)cccc21 (stereo not given)	–	> 100 µM	–
ClCCC[Si]12OCCN(CCO1)CCO2	–	> 100 µM	–
C=CN1CCN(c2ccccc2)P1(=O)Oc1ccccc1 (stereo not given)	–	> 100 µM	–
O=c1[nH]cnc2c(COCCCO)c[nH]c12	–	> 100 µM	–
NC(N)=N/N=C(/CC1OC(=O)c2ccccc21)c1ccc2ccccc2c1 (stereo not given)	–	42.2 µM	–
COc1ccc(NCc2cc(OC)c(OC)c(OC)c2)cc1	0.294 µM and 1.44 µM	–	–
CC(=O)OCC1OC(Sc2nc(-c3ccc(Cl)cc3)c(C#N)c(=O)n2C2OC(COC(C)=O)C(OC(C)=O)C(OC(C)=O)C2OC(C)=O)C(OC(C)=O)C(OC(C)=O)C1OC(C)=O (stereo not given)	–	> 100 µM and 51.3 µM	–
CC1CSC(=S)N1C(=O)N1C(=S)SCC1C (stereo not given)	–	85.4 µM	–
CC(C)(C)c1ccc(C(=O)Nc2sc3c(c2C#N)CCC(=O)C3)cc1	11.8 µM	> 100 µM	–
COc1ccc(=[O+]C)c2nssc1-2	–	> 100 µM	–
O=C(O)c1cc2ccccc2c(N=Nc2ccc(S(=O)(=O)O)cc2)c1O	–	> 100 µM	–

Structure (SMILES)	GI50	TGI	outcome
COc1cccc2c1-c1ccccc1[C@H](Nc1ccccc1)[C@@]2(C)O	–	23.5 µM	–
COC(=O)/C(C#N)=C(\Nc1ccccc1)N1CCCC1	–	> 100 µM	–
O=C(N/S(=N/S(=O)(=O)c1ccc(Br)cc1)C(Cl)(Cl)Cl)c1ccccc1 (stereo not given)	–	> 100 µM	–
COc1cc(C=O)cc(/C=N/N=C/c2ccccc2O)c1O	–	> 100 µM	–
CC(=O)OCC1OC(n2c(-c3ccc(C)cc3)cc(-c3ccco3)c(C#N)c2=S)C(OC(C)=O)C(OC(C)=O)C1OC(C)=O (stereo not given)	–	> 100 µM	–
Cc1cccc2c(C(=O)O[C@H](C(N)=O)[C@]3(C)CO3)cccc12	7.93 µM	19.6 µM	–
COCC(=O)Oc1cc(-c2ccc(C)cc2C)c(OC(=O)COC)c(-c2ccc(C)cc2C)c1	13.9 µM	45.3 µM	–
COc1cc(C(=O)/C=C/c2ccc(OCCCCCC[P+](c3ccccc3)(c3ccccc3)c3ccccc3)cc2)cc(OC)c1OC	0.943 µM	2.16 µM	–
COc1ccc2nc(NNC(=O)c3cnccn3)c3cccn3c2c1	0.273 µM	35.9 µM	–
C=CCCC1CCCNC1=S (stereo not given)	–	> 100 µM	–
CC(C)c1cc(C(=O)N2Cc3ccc(CN4CCN(C)CC4)cc3C2)c(O)cc1O	11 µM and 1.8 µM	> 100 µM and 71.9 µM	–
Cc1ccc(Nc2nc3nc[nH]c3c(=O)[nH]2)cc1CO	–	37.1 µM	–
c1ccc(CSc2nc(N3CCCCC3)c3cn[nH]c3n2)cc1	–	74.2 µM	–
NCCOc1ncccc1/C=C1\c2ccccc2-c2ccc(F)cc21	1.74 µM	3.86 µM	–
[O-]c1ccccc1/C=N/c1nccs1.[O-]c1ccccc1/C=N/c1nccs1.[O]=[U+2]=[O]	> 100 µM	> 100 µM	–
N#Cc1nn(C(N)=O)c(N)c1C#N	–	> 100 µM	–
CN(C)C=Nc1ccc2[nH]c3ccccc3c2c1	–	> 100 µM	–
O=C(O)CN1CCNCCNCC1	–	> 100 µM	–
CCCC[C@@H](C)/C=C1\CN2CCC[C@H]2[C@@](C)(O)[C@@H]1O	–	> 100 µM	–
Cc1ccc(NC(=O)OCC(COc2ccc(Cl)cc2)OC(=O)Nc2ccc(C)cc2)cc1 (stereo not given)	–	> 100 µM	–
C=C1C(=O)O[C@H]2[C@H]1CC/C(COC(=O)CCCCCCC(=O)OC/C1=C/CC[C@@]3(C)O[C@H]3[C@H]3OC(=O)C(=C)[C@@H]3CC1)=C\CC[C@@]1(C)O[C@@H]21	13.3 µM	27.8 µM	–
